Results as given in PubChem BioAssay AID504339 (National Center for Advancing Translational Sciences (NCATS), 2011).
Screen size: about 390,000 compounds; about 17,000 (4.4%) were called active. This list was built around the results that the source calls inconclusive (neither active nor inactive); the mix of calls is not that of the screen. Calls follow the shape of the dose curve; as a rule, active = well fitted inhibition curve with a large enough effect; inconclusive = small, poorly fitted or top-dose-only effect; inactive = no such curve, though single readings can be large or run the other way. Potencies beside an inconclusive call are fits to weak or partial responses and may not hold up.

What follows are compounds tested against Lysine-specific demethylase 4A (Homo sapiens) (UniProt O75164) (assay: qHTS Assay for Inhibitors of JMJD2A-Tudor Domain). Settings: AlphaScreen JMJD2A-Tudor / H3K4me3 peptide binding; activity change, negative = inhibition: at 114 µM (top of the series).
% is scaled to controls: 0 for no effect and ±100 for the full control effect; potency is read from the fitted curve at half-maximal effect; tags tell the direction and shape of the fitted curve.
Also: nearly all actives have a fitted effect of over 50% in size.

Sequence of UniProt O75164 (O75164 whole entry, looked up, the tested form may be a part): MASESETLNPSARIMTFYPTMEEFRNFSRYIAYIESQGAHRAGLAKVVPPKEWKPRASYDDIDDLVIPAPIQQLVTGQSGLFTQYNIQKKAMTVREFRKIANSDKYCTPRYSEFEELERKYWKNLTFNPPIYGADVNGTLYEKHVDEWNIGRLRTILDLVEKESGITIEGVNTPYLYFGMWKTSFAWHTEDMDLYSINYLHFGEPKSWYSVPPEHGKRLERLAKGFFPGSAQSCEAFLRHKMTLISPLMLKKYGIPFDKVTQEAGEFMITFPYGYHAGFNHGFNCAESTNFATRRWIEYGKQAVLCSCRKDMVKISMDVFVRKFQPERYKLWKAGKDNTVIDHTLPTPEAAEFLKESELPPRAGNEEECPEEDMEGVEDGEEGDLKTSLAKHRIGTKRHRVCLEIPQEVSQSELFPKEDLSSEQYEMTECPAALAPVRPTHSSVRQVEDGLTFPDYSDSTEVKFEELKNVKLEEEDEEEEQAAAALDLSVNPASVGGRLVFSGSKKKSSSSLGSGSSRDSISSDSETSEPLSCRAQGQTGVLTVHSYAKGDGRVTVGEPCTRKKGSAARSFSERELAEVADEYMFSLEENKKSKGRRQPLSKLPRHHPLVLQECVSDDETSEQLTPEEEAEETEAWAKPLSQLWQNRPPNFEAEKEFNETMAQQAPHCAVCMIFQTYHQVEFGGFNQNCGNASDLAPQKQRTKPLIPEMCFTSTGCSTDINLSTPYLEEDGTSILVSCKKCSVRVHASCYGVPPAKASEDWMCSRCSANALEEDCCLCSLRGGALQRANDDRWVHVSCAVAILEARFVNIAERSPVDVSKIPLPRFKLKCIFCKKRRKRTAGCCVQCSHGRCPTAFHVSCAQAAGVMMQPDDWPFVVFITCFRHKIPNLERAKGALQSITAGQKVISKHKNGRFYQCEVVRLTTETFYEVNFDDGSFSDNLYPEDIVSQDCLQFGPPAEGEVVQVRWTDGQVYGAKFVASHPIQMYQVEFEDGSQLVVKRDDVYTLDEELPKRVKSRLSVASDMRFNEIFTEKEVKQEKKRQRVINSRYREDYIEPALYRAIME

Potency, active:
COc1ccc(O)c(/C=C2/SC(=S)N(Cc3ccccc3)C2=O)c1 39.8 µM, Cc1ccc2nc(-c3ccc(O)c(O)c3)cn2c1 22.4 µM, COc1cccc(/C=N/NC(=O)c2ccc(=O)n(C)c2)c1O 56.2 µM, CCOc1ccc(C(O)(c2ccccc2)C(CN2CCCC2)c2ccccc2)cc1 (configuration not stated) 14.1 µM, O=C(O)CC1S/C(=N/N=C/c2ccccn2)NC1=O (configuration not stated) 79.4 µM, C/[N+]([O-])=C\CC(=O)c1ccc(-c2ccccc2)cc1 31.6 µM, CCN(c1ccccc1)S(=O)(=O)c1ccc(OC)c(NC(=O)CNCCc2ccccc2)c1 0.891 µM, C=CC#CC1(O)CC(C)[N+](C)(C)CC1C (configuration not stated) 22.4 µM, Cc1ccc(C(=O)NC(=S)Nc2ccc(N3CCOCC3)cc2)cc1C 50.1 µM, Cc1ccc(/C=C2\SC(=S)N(CCCC(=O)N3CCOCC3)C2=O)cc1 20 µM, CNCCCOc1ccc(C)cc1OC 1.58 µM, COc1cc([N+](=O)[O-])cc(/C=N/NC(=O)Cn2cncn2)c1O 25.1 µM

Potency, inconclusive:
CCCOc1ccc(C2c3c(-c4ccccc4O)n[nH]c3C(=O)N2CCCOCC)cc1OCC (configuration not stated) 50.1 µM [inhibitor, partial curve], CC1CCN(c2cc(N)c(Cl)cc2[N+](=O)[O-])CC1 56.2 µM [inhibitor, partial curve], CCc1cc(C(=O)Nc2nc(-c3ccccn3)cs2)sc1C 89.1 µM [inhibitor, partial curve], NCCCC[C@@H]1NC(=O)c2cc([N+](=O)[O-])cc(I)c2SC[C@@H](C(N)=O)NC(=O)[C@H](CCC(N)=O)NC1=O 89.1 µM [inhibitor, single point], COC(=O)Cc1c(C)c2ccc3c(c2oc1=O)CN(Cc1ccccc1OC)CO3 100 µM [inhibitor, partial curve, poor fit], Cc1oc(-c2ccccc2Cl)nc1CSc1nc2c(c(=O)[nH]1)CCCC2 44.7 µM [inhibitor, partial curve, poor fit], O=C(c1ccco1)N1CCN(C(=O)C2CCCN(S(=O)(=O)Cc3ccccc3)C2)CC1 (configuration not stated) 79.4 µM [inhibitor, partial curve], O=C(CCCc1cccs1)Nc1nc2c(s1)CCCC2 79.4 µM [inhibitor, partial curve], O=C(Nc1ccc2c(c1)OCCO2)c1cccc2nc3ccccc3nc12 3.55 µM [inhibitor, full curve], O=C(NC1=NCCS1)c1cccc2ccccc12 28.2 µM [inhibitor, partial curve], S=c1[nH]nc(-c2ccc(Cl)cc2)n1Cc1ccccc1 50.1 µM [inhibitor, partial curve], CCn1cc(C(=O)O)c(=O)c2cc(F)c(N3CCN(C(=S)NC(=O)c4ccccc4F)CC3)cc21 89.1 µM [inhibitor, partial curve], Cc1cc(=O)[nH]c(N/N=C/c2cc(C)n(-c3ccccc3)c2C)n1 56.2 µM [inhibitor, partial curve], CN(C)S(=O)(=O)N1CCC(Oc2cccc(C(=O)NC3CCCCC3)c2)CC1 14.1 µM [inhibitor, partial curve, poor fit], CC1=NN(C(C#N)c2c(C)nn(Cc3ccccc3)c2C)C(C)(C)C1 (configuration not stated) 31.6 µM [inhibitor, single point], COc1ccc(CN2CCCC(C(=O)N3CCCCC3)C2)c(OC)c1 (configuration not stated) 22.4 µM [inhibitor, single point], Cc1nc(C)c(-c2csc(Nc3cccnc3)n2)s1 56.2 µM [inhibitor, partial curve], CCOC(=O)c1cc(-c2ccccc2)n(-c2cccc(C(=O)Nc3cccc(C)c3)c2)c1C 14.1 µM [inhibitor, full curve, poor fit], CN(C)c1cccc(C(=O)N2CCCC(C(=O)c3cc(F)ccc3F)C2)c1 (configuration not stated) 89.1 µM [inhibitor, partial curve], NC(=O)c1c(NC(=O)C2c3ccccc3Oc3ccccc32)sc2c1CCCCC2 63.1 µM [inhibitor, partial curve], COc1ccc(-c2nn(-c3ccccc3)cc2C(=O)NC(=S)NNC(=O)c2ccncc2)cc1 50.1 µM [inhibitor, partial curve], COC(=O)c1ccc(C(=O)OC)c(NC(=O)N2CC3CCCN3c3ccccc32)c1 (configuration not stated) 31.6 µM [inhibitor, partial curve], COc1ccc(NC(=O)CN(C)C(=O)c2oc3c(ccc4ccccc43)c2C)cc1 44.7 µM [inhibitor, partial curve], COc1ccccc1N/N=C/c1c(CO)cnc(C)c1O 56.2 µM [inhibitor, partial curve], COc1ccc(Nc2nnc(SCC(=O)/C=C3/N(C)c4ccccc4C3(C)C)s2)cc1 28.2 µM [inhibitor, full curve, poor fit]

Activity change, negative = inhibition, inactive:
Cc1cccc(OCCCC(=O)NCc2ccco2)c1 -13.9%, CC(=O)c1ccc(NS(=O)(=O)c2ccc(N)cc2)cc1 -27% [at 57.1 µM], Cc1cccc(NC(=O)NNC(=O)c2cc3occc3[nH]2)c1C -18.1%, CC(C)C(NC(=O)c1c(F)cccc1F)C(=O)N1CCN(c2ncccn2)CC1 (configuration not stated) 0.645%, CNc1oc(-c2ccccc2F)nc1S(=O)(=O)c1ccc(C)cc1 -6.85%, Cc1cccc(C)c1OCC(=O)NCC1COc2ccccc2O1 (configuration not stated) 2.36%, CCc1nn(Cc2cccc(F)c2)c(=O)c2cc3cc(C)ccc3n12 7.72%, Cc1cccc(NCc2cc(Cl)cc(Cl)c2O)n1 -14%, Cc1ccc2oc(C(=O)Nc3ccc(S(=O)(=O)Nc4ncccn4)cc3)c(C)c2c1 -6.62%, Cc1ccc(S(=O)(=O)Nc2cccc3c2O[C@H](CN(C)Cc2ccccc2)[C@@H](C)CN([C@H](C)CO)C3=O)cc1 -23.4%
